Assay results reported in paper PMC10547799.
Substitutions are numbered along the chain they refer to. In names and notes the source's numbering stands. No constants are given. Whether binding was seen depends on the method and setting. Binding seen in cells or lysates may run through a third protein. Some entries that bind do so weakly or less than the wild type. For part of these data: Sequences can lack the tags named with a protein. Blank lines part the entries; values can stand above or below the binder they belong to.

What was measured:
[1] = target: PLK1-Flag (human) (UniProt P53350); assay: co-IP; DU145 transfected with PLK1-Flag and UHRF1-His wild type or mutants (in Fig. 4J synchronised at S phase, lysate not treated with PP2A); IP anti-Flag, blot anti-His
[2] = target: PLK1-Flag (human) (UniProt P53350); assay: condition: only cell lysate treated with PP2A phosphatase before immunoprecipitation; co-IP; DU145 transfected with PLK1-Flag and UHRF1-His wild type or S682D, synchronised at S phase; cell lysate treated with PP2A phosphatase before IP anti-Flag, blot anti-His
[3] = target: PLK1-Flag (human) (UniProt P53350); assay: co-IP; HEK293T co-transfected with UHRF1-His and Flag-tagged PLK1 (full length or truncated); IP with anti-Flag or anti-His; RIPA extracts, antibody 4 °C 12 h, protein A/G magnetic beads; western blot
[4] = target: PLK1 (endogenous) (human (endogenous in DU145 and BT549)) (UniProt P53350); assay: co-IP; endogenous proteins, DU145 and BT549 lysates; IP with anti-PLK1 or anti-UHRF1; also DU145 synchronised at G1/S by double thymidine, released, or arrested in M phase with nocodazole (IP anti-UHRF1)
[5] = target: PLK1-Flag (human) (UniProt P53350); assay: co-IP; DU145 transfected with PLK1-Flag and UHRF1-His wild type or S682D, synchronised at S phase; cell lysate treated with PP2A phosphatase before IP anti-Flag, blot anti-His

binding [1]: binds
binding [2]: no binding
binding [3]: binds
B1: UHRF1-His (protein, UniProt Q96T88 1-793)
chain: MWIQVRTMDGRQTHTVDSLSRLTKVEELRRKIQELFHVEPGLQRLFYRGKQMEDGHTLFDYEVRLNDTIQLLVRQSLVLPHSTKERDSELSDTDSGCCLGQSESDKSSTHGEAAAETDSRPADEDMWDETELGLYKVNEYVDARDTNMGAWFEAQVVRVTRKAPSRDEPCSSTSRPALEEDVIYHVKYDDYPENGVVQMNSRDVRARARTIIKWQDLEVGQVVMLNYNPDNPKERGFWYDAEISRKRETRTARELYANVVLGDDSLNDCRIIFVDEVFKIERPGEGSPMVDNPMRRKSGPSCKHCKDDVNRLCRVCACHLCGGRQDPDKQLMCDECDMAFHIYCLDPPLSSVPSEDEWYCPECRNDASEVVLAGERLRESKKKAKMASATSSSQRDWGKGMACVGRTKECTIVPSNHYGPIPGIPVGTMWRFRVQVSESGVHRPHVAGIHGRSNDGAYSLVLAGGYEDDVDHGNFFTYTGSGGRDLSGNKRTAEQSCDQKLTNTNRALALNCFAPINDQEGAEAKDWRSGKPVRVVRNVKGGKNSKYAPAEGNRYDGIYKVVKYWPEKGKSGFLVWRYLLRRDDDEPGPWTKEGKDRIKKLGLTMQYPEGYLEALANREREKENSKREEEEQQEGGFASPRTGKGKWKRKSAGGGPSRAGSPRRTSKKTKVEPYSLTAQQSSLIREDKSNAKLWNEVLASLKDRPASGSPFQLFLSKVEETFQCICCQELVFRPITTVCQHNVCKDCLDRSFRAQVFSCPACRYDLGRSYAMQVNQPLQTVLNQLFPGYGNGR

binding [4]: binds
B2: UHRF1 (endogenous) (protein, UniProt Q96T88 1-793)
chain: B1 chain

binding [1]: binds
binding [5]: binds
B3: UHRF1(S682D)-His (protein, UniProt Q96T88 1-793)
chain: B1 chain with S682D
